This test relates to AKR/Lw mice, AKR lymphoma ip, median survival T/C. The test is described as follows: NCI In Vivo Anticancer Drug Screen. Data for tumor model Lymphoma AKR (Transplanted) (intraperitoneal) in AKR/Lw mice. The following applies: endpoint: median survival time, higher = longer survival. As for the experimental part: The antitumor activity of compounds was measured in mice bearing transplantable tumors. Survival or tumor size were measured and the results are expressed as the measurement made in the treated group (T) divided by the measurement made in the vehicle treated control group (C). The tumor model used in this assay is Lymphoma AKR (Transplanted) (intraperitoneal) in AKR/Lw mice

Where [1] appears, read: dose: 150.0 mg/kg/injection, schedule: Q01DX009 (ip), vehicle: saline.

Inconclusive results and toxic doses are left out. The source holds more than one record for some entries. They are shown here; other results are not. The source may hold further records. The values listed for one entry are repeats in other runs, samples, wells, individuals or studies.

The results in this text go back to PubChem BioAssay AID190 (DTP/NCI, 2004).

`O=P1(N(CCCl)CCCl)NCCCO1` (configuration not stated): the T/C by setting is: (dose: 5.0 mg/kg/injection, schedule: Q01DX009 (ip), vehicle: saline) 100 % of control and 160 % of control; (dose: 15.0 mg/kg/injection, schedule: Q01DX009 (ip), vehicle: saline) 120 % of control and 156 % of control; (dose: 200.0 mg/kg/injection, schedule: Q07DX003 (ip), vehicle: saline) 106 % of control and 153 % of control.

With `O=c1[nH]c(=O)n(C2CC(O)C(CO)O2)cc1F` (configuration not stated), the T/C (dose: 12.5 mg/kg/injection, schedule: Q01DX009 (ip), vehicle: saline) is 110 % of control and 156 % of control.

`Cc1c2ccncc2c(C)c2c1[nH]c1ccccc12`: the T/C (dose: 25.0 mg/kg/injection, schedule: Q01DX005 (ip), vehicle: other) is 97 % of control and 175 % of control.

On to `CC(=O)NNC(=O)c1ccccn1`, for which the T/C (dose: 125.0 mg/kg/injection, schedule: Q01DX001 (ip), vehicle: Klucel (hydroxypropylcellulose) (HPC)) is 94 % of control and 150 % of control.

As to `O=C[C@@H](CO)O[C@H](C=O)n1cnc2c(=O)[nH]cnc21`, the T/C under setting [1] was 106 % of control and 152 % of control.

With `O=NN(CCCl)C(=O)NCCCl`, the T/C (dose: 2.0 mg/kg/injection, schedule: Q04DX004 (ip), vehicle: saline) was 115 % of control and 200 % of control.

Consider `CN(C)C(=O)c1cccc(COc2ccc(N3C(N)=NC(N)=NC3(C)C)cc2Cl)c1`, for which the T/C (dose: 6.2 mg/kg/injection, schedule: Q04DX003 (ip), vehicle: saline) was 100 % of control and 333 % of control; the T/C (dose: 15.0 mg/kg/injection, schedule: Q04DX003 (ip), vehicle: saline) is 102 % of control and 188 % of control.

As for `Nc1ncn(C2OC(CO)C(O)C2O)c(=O)n1` (configuration not stated), the T/C is 122 % of control and 150 % of control (dose: 6.0 mg/kg/injection, schedule: Q04DX003 (ip), vehicle: water); 121 % of control and 161 % of control (dose: 6.7 mg/kg/injection, schedule: Q04DX004 (ip), vehicle: saline); 119 % of control and 175 % of control (dose: 6.7 mg/kg/injection, schedule: Q04DX008 (ip), vehicle: saline); 100 % of control and 184 % of control (dose: 35.0 mg/kg/injection, schedule: Q01DX001 (ip), vehicle: saline).

On to `CCCCCCCCCCCCCCCC(=O)OCC1OC(n2ccc(N)nc2=O)C(O)C1O` (configuration not stated), for which the T/C is 90 % of control and 272 % of control (dose: 20.0 mg/kg/injection, schedule: Q01DX010 (ip), vehicle: saline with Tween-80); 92 % of control and 153 % of control (dose: 100.0 mg/kg/injection, schedule: Q09DX002 (ip), vehicle: saline with Tween-80).

In the case of `N=c1ccn2c(n1)OC1C(O)C(CO)OC12` (configuration not stated), the T/C runs as follows: (dose: 75.0 mg/kg/injection, schedule: Q01DX009 (ip), vehicle: saline) 105 % of control and 152 % of control; under setting [1], 111 % of control and 156 % of control.

For `O=P1(NCCCl)OCCCN1CCCl` (configuration not stated), the T/C by setting is: (dose: 40.0 mg/kg/injection, schedule: Q01DX009 (ip), vehicle: saline) 102 % of control and 162 % of control; (dose: 50.0 mg/kg/injection, schedule: Q07DX003 (ip), vehicle: saline) 113 % of control and 168 % of control.

Regarding `N[C@@H](Cc1ccc(N(CCCl)CCCl)cc1)C(=O)O`, the T/C (dose: 6.0 mg/kg/injection, schedule: Q01DX001 (ip), vehicle: Klucel (hydroxypropylcellulose) (HPC)) was 115 % of control and 160 % of control.

Regarding `O=c1[nH]cc(F)c(=O)[nH]1`, the T/C (dose: 60.0 mg/kg/injection, schedule: Q01DX001 (ip), vehicle: saline) is 113 % of control and 172 % of control.
